Experimental data taken from PubChem BioAssay AID493208 (National Center for Advancing Translational Sciences (NCATS), 2011).
The whole screen tested about 44,000 compounds, of which about 340 (0.77%) were called active. Not shown: some 5% with an inconclusive outcome. Calls come from the whole dose curve; as a rule, active = well fitted inhibition curve with a large enough effect; inconclusive = small, poorly fitted or top-dose-only effect; inactive = flat fitted curve, though single readings scatter. This is one part of the list.

assay: Acumen qHTS Assay for Inhibitors of the mTORC1 Signaling Pathway in MEF (Tsc2-/-, p53-/-) Cells: Sytravon; conditions: phospho-rpS6 immunofluorescence/PI, 24 h; series mostly up to 38.3 µM; activity change, negative = inhibition: at the top concentration; note: nearly all actives have a fitted effect of over 50% in size
Text: NIH Molecular Libraries Probe Production Centers Network [MLPCN] NIH Chemical Genomics Center [NCGC] MLPCN Grant: NS059428-01 Assay Submitter (PI): Blenis, John; Hoffman, Greg; Harvard University NCGC Assay Overview: The mammalian target of rapamycin (mTOR) is an intracellular serine/threonine kinase Aberrant regulation of mTOR signaling plays a causative role in a number of human diseases, including cancer, benign tumors such as lymphangioleiomyomatosis (LAM) and Tuberous Sclerosis Complex (TSC), and metabolic diseases such as diabetes and obesity. This project aims to identify inhibitors of ribosomal protein S6 (rpS6) phosphorylation. The phosphorylation of rpS6 is a key event downstream of mTOR activation. The assay uses a phospho-specific antibody of phospho-rpS6 to detect inhibitors of mTOR activation. Mutations in the Tsc1 and Tsc2 genes are the underlying genetic lesions responsible for TSC, causing constitutive activation of the mTORC1 pathway and leading to profound effects on cell metabolism. Aberrant metabolism in cancer has recently received significant attention as a target to develop therapeutic agents in the treatment of cancer.1 As Tsc2-/- cells have lost the ability to respond to energy and growth factor deprivation, these cells are unable to properly down regulate cellular biosynthetic processes in response to metabolic stress, and are thus extremely sensitive to glucose deprivation-induced death.2 A central goal of this project is to explore the unique cell survival and metabolic properties of cells with Tsc1 or Tsc2 by screening for compounds that selectively target the Tsc2-/- MEFs by screening both Tsc2-/- and WT MEF cell lines. We hope to better understand these aspects of TSC physiology in order to exploit them for therapeutic benefit.
NCGC Acumen Assay Protocol Summary: For quantitative high throughput analysis of mTORC1 signaling, we developed a cell-based assay for immuno-fluorescence based detection of rpS6 phosphorylation on the Acumen Explorer that will be used a platform for the primary small molecule screen. Mouse embryonic fibroblasts (MEFs) are cultured in 1536-well plates using DMEM + 10% FBS. Twenty-four hrs after plating, test compounds (solubilized in DMSO) are delivered and incubated with the cells for 24 hrs at 37 degree Celsius. Following the incubation, media with compound is aspirated and the cells are fixed in 4% paraformaldehyde (PFA) containing PBS + 0.2% TX-100. Next, PFA is aspirated, cells are washed two times with PBS plus 0.2% TX-100 and the cells are blocked for 1 hr at room temperature (blocking buffer: LiCOR Blocking Buffer plus 0.2% TX-100). […] Cells are washed two times with PBS plus 0.2% TX-100, and stained with 10 uM propidium iodide (PI) for 20-25 minutes for cell number measurement (1:500 dilution of Hoescht staining is also added for IN Cell imaging). The plates are scanned on the Acumen Explorer laser scanning instrument (TTP Labtech) using the 488nm laser for simultaneous excitation of the Alexa-488 and PI. […] The normalized phospho-S6 staining is calculated as the ratio of the integrated Alexa 488 intensity divided by the integrated PI intensity for the single concentration rapamycin control (7.5 nM) and DMSO columns. […] Inhibition of the pathway is defined based on the normalized phospho-S6 intensity in rapamycin treated cells. Active cells are defined as those with a normalized phospho-S6 staining above this threshold, and each treatment is reported as the % positive cells in the well, where thresholds are defined by selecting wells with the highest and lowest signal and differentiating between the % non-active and % active populations. In addition to the pathway specific phospho-S6 endpoint, the number of PI stained cells from the Acumen is recorded as a measure of cell viability. The primary screen was performed with a MEF cell line in a defined genetic background, Tsc2-/-, p53-/- cell line stably transfected with an empty vector control (Tsc2-/- MEF).
Potency is the fitted concentration of half-maximal effect.

Activity change, negative = inhibition, inactive:
C=Cc1ccc(Cn2c(C(=O)OC)cc3sc(C)cc32)cc1 -9.72%
CC(C)OCCCNC(=O)CN1C(=O)CSc2ccc(S(=O)(=O)N3CCOCC3)cc21 -1.95%
COc1cccc(NC(=O)c2oc3ccc(S(=O)(=O)N4CCOCC4)cc3c2C)c1 7.75%
CCc1ccc(Nc2nc3c(S(=O)(=O)c4cccc(Cl)c4)nnn3c3ccsc23)cc1 1.87%
CNc1nc(Oc2ccc(=O)[nH]n2)nc(N2CCOCC2)n1 0.404%
COc1ccc(-n2cc(C(=O)Nc3ccccc3C#N)c3ccccc3c2=O)cc1 -0.505%
O=C(c1cccc([N+](=O)[O-])c1)N1CCN(CCc2ccncc2)CC1 1.93%
CCOc1ccccc1NC(=O)c1nn(-c2ccc(OC)cc2)c(=O)c2c1c1ccccc1n2C 1.09%
CCOc1ccc(NC(=O)Cn2c(=O)n(Cc3ccccc3)c(=O)c3c4c(sc32)CN(C(C)=O)CC4)cc1 -14.2%
COc1cccc(-n2cc(C(=O)Nc3ccccc3C(N)=O)c3ccccc3c2=O)c1 11.7%
Cc1nc(SCCOc2ccc(Cl)cc2)[nH]c(=O)c1Cc1ccccc1 7.62%
Cc1ccccc1CNC(=O)Cn1cc2c(n1)-c1c(oc(C(=O)N3CCCC3)c1C)CC2 -6.84%
COc1ccccc1NC(=O)C1=C(C)Nc2ncnn2C1c1sccc1C (stereo not drawn) 3.53%
COc1ccc(N2CC(NC(=O)C3CCCC3)CC2=O)cc1 (stereo not drawn) -0.638%
COc1ccc(OC)c(CNC(=O)CCC(=O)N2Cc3ccccc3Oc3ncccc32)c1 -2.05%
COc1ccc2nc(NC(=O)c3nc(SCc4cccc(C)c4)ncc3Cl)sc2c1 3.5%
COc1ccc(N(CC(=O)N2CCN(c3ccc(F)cc3)CC2)S(=O)(=O)c2c(C)nn(C)c2C)cc1 -0.649%
Cc1cc(C)cc(NC(=O)CN(C)S(=O)(=O)c2ccc3c(c2)CCC(=O)N3)c1 -11.5%
Cc1cccc(C(=O)Nc2sc3c(c2C(=O)O)CCCC3)c1 6.54%
COc1cccc(CNC(=O)c2cccc(NC(=O)c3nsc4ccccc34)c2)c1 2.84%
COc1cc(Cl)c(NC(=O)CN(C)S(=O)(=O)c2ccc3[nH]c4c(c3c2)CCCC4)c(OC)c1 -2.1%
CCCOc1ccc(CNC(=O)Cn2c(=O)oc3ccccc32)cc1 -0.255%
Cc1ccc(CNC(=O)c2cnn(-c3ccc(F)cc3F)c2C2CCN(C(=O)OC(C)(C)C)CC2)cc1 0.561%
CCCOc1ccc(C2C(=O)N(C3CCCCC3)CC(=O)N2CCC2=CCCCC2)cc1OC (stereo not drawn) 0.302%
CCOC(=O)C(CC)Sc1nnc2[nH]c(=O)cc(C)n12 (stereo not drawn) -1.29%
COc1cccc(CNC(=O)CC(c2ccc(C)cc2)N2Cc3ccccc3C2=O)c1 (stereo not drawn) -10.1%
COc1ccc(NS(=O)(=O)c2ccc3c(c2)n(C)c(=O)c(=O)n3C)cc1Cl 0.377%
O=C(CSc1n[nH]c(-c2ccccc2)n1)NCCc1ccccc1 -10.9%
COc1cccc(CNC(=O)CCS(=O)(=O)c2cc3c4c(c2)CCN4C(=O)CC3)c1 5.67%
CCOC(=O)c1cc2c(=O)n3ccccc3nc2n(CC2CCCO2)c1=NC(=O)c1ccccc1F (stereo not drawn) -0.839%
COc1ccc(CNC(=O)C(C)n2nc(C)c3sc4ccccc4c3c2=O)cc1OC (stereo not drawn) -2.22%
Cc1ccccc1NC(=O)CSc1nnc(-c2cccc(Cl)c2)o1 -3.78%
COc1ccccc1-c1ccnc2c(-c3ccc(Br)cc3)c(C)nn12 -0.929%
CCc1ccc(Cn2c(CNS(=O)(=O)c3ccc(Cl)s3)nc3cccnc32)cc1 -19.7%
Cc1csc2nc(-c3cccc(NC(=O)c4ccccc4F)c3)cn12 0.579%
CC(C)(C)c1ccc(S(=O)(=O)N2CCN(C(=O)c3cc(-c4ccc(Br)cc4)n[nH]3)CC2)cc1 0.204%
O=C(CSc1nc(O)c(C/C=C/c2ccccc2)c(=O)[nH]1)Nc1cccc(F)c1 -3.03%
CCOc1ccc(NC(=O)c2noc3c2CSc2ccccc2-3)cc1 -1.53%
O=C(NCc1ccc(Cl)cc1)C1CCN(S(=O)(=O)c2ccc3c(c2)CCCN3C(=O)C2CCC2)CC1 -3.25%
COc1cc(-c2noc(-c3ccc(N4CCCCC4)c([N+](=O)[O-])c3)n2)cc(OC)c1OC -1.28%
CCOCCc1nn2c(=O)cc(COC(=O)c3ccco3)nc2s1 1.77%
O=C(Nc1ccc2oc(-c3cc(Br)ccc3Cl)nc2c1)c1ccc2ccccc2c1 -13.6%
COc1cccc(CNC(=O)c2nnc(Cc3ccc(Cl)cc3)o2)c1 -14.1%
O=C(CSc1ccc(-c2cccs2)nn1)Nc1cccc(F)c1 -15.4%
CCN1CCN(CCCNC(=O)c2ccc3c(c2)sc2nc(-c4ccc(C)cc4)cn23)CC1 8.96%
COc1ccc(-c2cc(C)no2)cc1S(=O)(=O)N1CC(C)Oc2ccccc21 (stereo not drawn) 0%
COc1ccccc1N1CCN(c2ncnc3onc(C)c23)CC1 -3.73%

Potency, active:
COc1cc(-c2nc3cnccn3c2Nc2ccc(C(C)C)cc2)ccc1O 14.7 µM
